This is an account of results in patent US20250361299A1 (published 2025).

One experiment has as its target Recombinant human EGFR (human, UniProt P00533 fragment). Put plainly: ELISA; without uPA.
The target of another experiment is T1, Human CD3 protein (human, UniProt P07766 23-126).
T1 chain: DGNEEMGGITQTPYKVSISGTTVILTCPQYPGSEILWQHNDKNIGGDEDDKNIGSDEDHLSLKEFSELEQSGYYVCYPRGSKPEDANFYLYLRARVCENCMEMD
In words: ELISA; without uPA.

B1: 1.7 proBiTE (bispecific antibody)
heavy: QDGNEEMGGGSQDGNEEMGGGGSGGGSGGGSGLSGRSDNHGGSSGGSEVQLVESGGGLVQPGGSLRLSCAASGFTFNTYAMNWVRQAPGKGLEWVARIRSKYNNYATYYADSVKGRFTISRDDSKNTLYLQMNSLRAEDTAVYYCARHGNFGSSYVSYFAYWGQGTTVTVSSASTKGPSVFPLAPSSKSTSGGTAALGCLVKDYFPEPVTVSWNSGALTSGVHTFPAVLQSSGLYSLSSVVTVPSSSLGTQTYICNVNHKPSNTKVDKKVEPKS[human IgG1 Fc with T366L Y407H (EU numbers) cut from this listing]GGGGSGGGGSGGGGSEVQLVETGGGVVQPGRSLRLSCAASGFTFSSYAMHWVRQAPGKGLEWVAVISYDGSNKYYADSVKGRFTISRDNSKNTLYLQMNSLRAEDTAVYYCARGYVARGDFDYWGQGTLVTVSSGGGGSGGGGSGGGGSDVVMTQSPSTLSASVGDRVTITCRASQSMSRWLAWYQQKPGKGPKLLIYATSTLQSGVPSRFSGSGSGTEFTLTISSLQPEDFATYYCQQLDSFPFSFTFGPGTKVDLK
light: EIVVTQSPATLSVSPGERATLSCRSSTGAVTTSNYANWVQQKPGQAPRGLIGGANKRAPGVPARFSGSLSGDEATLTISSLQSEDFAVYYCALWYSNLWVFGQGTKLEIKRTVAAPSVFIFPPSDEQLKSGTASVVCLLNNFYPREAKVQWKVDNALQSGNSQESVTEQDSKDSTYSLSSTLTLSKADYEKHKVYACEVTHQGLSSPVTKSFNRGE[human IgG1 Fc with T366L Y407H (EU numbers) cut from this listing]GGGGSGGGGSGGGGSEVQLVETGGGVVQPGRSLRLSCAASGFTFSSYAMHWVRQAPGKGLEWVAVISYDGSNKYYADSVKGRFTISRDNSKNTLYLQMNSLRAEDTAVYYCARGYVARGDFDYWGQGTLVTVSSGGGGSGGGGSGGGGSDVVMTQSPSTLSASVGDRVTITCRASQSMSRWLAWYQQKPGKGPKLLIYATSTLQSGVPSRFSGSGSGTEFTLTISSLQPEDFATYYCQQLDSFPFSFTFGPGTKVDLK
As to B1, the concentration giving a half-maximal response (EC50) is 7.14 µg/mL in the experiment with Recombinant human EGFR and ~951 µg/mL with Human CD3 protein.

B2: 1.6 proBiTE (bispecific antibody)
heavy: QDGNEEMGGGSQDGNEEMGGGGSGGGSGGGSGLSGRSDNHGGSSGGSEVQLVESGGGLVQPGGSLRLSCAASGFTFNTYAMNWVRQAPGKGLEWVARIRSKYNNYATYYADSVKGRFTISRDDSKNTLYLQMNSLRAEDTAVYYCARHGNFGSSYVSYFAYWGQGTTVTVSSASTKGPSVFPLAPSSKSTSGGTAALGCLVKDYFPEPVTVSWNSGALTSGVHTFPAVLQSSGLYSLSSVVTVPSSSLGTQTYICNVNHKPSNTKVDKKVEPKS[human IgG1 Fc with T366L Y407H (EU numbers) cut from this listing]GGGGSGGGGSGGGGSEVQLVETGGGVVQPGRSLRLSCAASGFTFSSYAMHWVRQAPGKGLEWVAVISYDGSNKYYADSVKGRFTISRDNSKNTLYLQMNSLRAEDTAVYYCARGYVARGDFDYWGQGTLVTVSS
light: EIVVTQSPATLSVSPGERATLSCRSSTGAVTTSNYANWVQQKPGQAPRGLIGGANKRAPGVPARFSGSLSGDEATLTISSLQSEDFAVYYCALWYSNLWVFGQGTKLEIKRTVAAPSVFIFPPSDEQLKSGTASVVCLLNNFYPREAKVQWKVDNALQSGNSQESVTEQDSKDSTYSLSSTLTLSKADYEKHKVYACEVTHQGLSSPVTKSFNRGE[human IgG1 Fc with T366L Y407H (EU numbers) cut from this listing]GGGGSGGGGSGGGGSDVVMTQSPSTLSASVGDRVTITCRASQSMSRWLAWYQQKPGKGPKLLIYATSTLQSGVPSRFSGSGSGTEFTLTISSLQPEDFATYYCQQLDSFPFSFTFGPGTKVDLK
Turning to B2, the EC50 in the experiment with Recombinant human EGFR was 23 µg/mL; with Human CD3 protein, ~965 µg/mL.
